The source of these data is PubChem BioAssay AID360 (National Center for Advancing Translational Sciences (NCATS), 2006).

Structures are written as SMILES. Out of some 48,000 compounds screened, about 550 (1.1%) were called active. Another 4% or so got no clear call; they are omitted. No stated cut-off is given here; in the data, active means potency below about 15 µM; inconclusive means mostly about 16 µM to 33 µM; inactive means weaker than that. This is one part of the list. Bounds are passed on as bounds.
Potency means the concentration at half of the fitted maximal effect.

Sequence of UniProt P04062 (P04062 whole entry, looked up): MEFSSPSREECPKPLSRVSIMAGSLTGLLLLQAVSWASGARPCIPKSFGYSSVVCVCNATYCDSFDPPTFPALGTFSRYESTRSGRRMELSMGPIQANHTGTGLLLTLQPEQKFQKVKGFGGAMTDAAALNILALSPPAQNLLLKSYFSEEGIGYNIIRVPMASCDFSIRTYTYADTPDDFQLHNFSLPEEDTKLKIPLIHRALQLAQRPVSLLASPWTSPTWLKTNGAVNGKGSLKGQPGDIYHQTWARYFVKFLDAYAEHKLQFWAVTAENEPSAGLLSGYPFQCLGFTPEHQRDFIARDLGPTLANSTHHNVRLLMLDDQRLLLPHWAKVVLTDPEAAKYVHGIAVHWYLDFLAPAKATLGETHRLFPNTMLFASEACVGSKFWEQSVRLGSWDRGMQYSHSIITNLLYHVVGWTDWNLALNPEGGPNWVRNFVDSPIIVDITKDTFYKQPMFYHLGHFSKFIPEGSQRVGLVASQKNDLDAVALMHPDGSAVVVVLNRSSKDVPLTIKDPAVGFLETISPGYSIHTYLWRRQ

For the test, the target named is Lysosomal acid glucosylceramidase (Homo sapiens) (UniProt P04062). Put plainly: Glucocerebrosidase.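 Further: the screen sought inhibitors.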 Conditions: purified enzyme, resorufin glucoside fluorescence (screen aimed at inhibitors), 20 min. The method in brief:
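Wild-type enzyme at 0.2 nM final in 50mM citric acid/KH2PO4, 10mM sodium taurocholate, 0.01% tween-20, pH 5.9, with resorufin beta-D-glucopyranoside at 30 uM final. Compounds titrated, 20 min at RT, red fluorescence read; AC50 from titration.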
On to `Cc1cc(C)cc(-c2nnc(SCC(=O)N3CCN(C(=O)c4ccco4)CC3)o2)c1`, for which the Potency is inactive: > 76.9 µM. For `CCOC(=O)c1cc(NC(=O)Nc2ccc(OC)c(OC)c2)c(C)nc1C` the value was inactive: > 76.9 µM; for `CCOC(=O)N1CCN(C(=O)CSc2nnc(-c3c[nH]c4ccccc34)n2CCOC)CC1`, inactive: > 76.9 µM. For `CCOc1ccc2nc(NC(=O)CSc3nc4c(c(=O)n(C)c(=O)n4C)n3C(C)C)sc2c1` the value was inactive: > 76.9 µM; for `CCOc1ccc(-c2n[nH]c(C)c2Oc2ccccc2OC)c(O)c1`, inactive: > 76.9 µM; for `O=C(Nc1ccc(N2CCOCC2)c(F)c1)c1ccncc1`, “inactive”.

As for `O=C(CSc1nnc2scc(-c3ccc(F)cc3)n12)NCc1ccco1`, the Potency was inactive: > 76.9 µM. In the case of `COc1ccc(Cl)cc1NS(=O)(=O)c1ccc(S(=O)(=O)N2CCCC2)cc1`, the Potency was inactive: > 76.9 µM. For the compound `CCCc1nnc(NC(=O)c2cccc(OC)c2)s1`, the Potency is inactive: > 76.9 µM. For `COc1ccccc1N1CCN(C(=O)c2ccccc2Oc2ccccc2)CC1` the value was inactive: > 76.9 µM. In the case of `COc1cccc(C(=O)Nc2cccc(C(=O)N3CCOCC3)c2)c1`, the Potency is inactive: > 76.9 µM. Regarding `CCN(CC(=O)N1CCOCC1)S(=O)(=O)c1ccc(C)cc1`, the Potency is inactive: > 76.9 µM. `C=CCn1c(O)c(CN2CCN(Cc3ccccc3)CC2)c(C)c(C#N)c1=O`: the Potency was inactive: > 76.9 µM. On to `COc1cc(Br)cc2cc(C(=O)N3CCN(C(=O)c4ccco4)CC3)c(=O)oc12`, for which the Potency was inactive: > 76.9 µM. As for `Cc1nc2c3c4c(sc3n3c(SCC(=O)NCc5ccco5)nnc3n2n1)COC(C)(C)C4`, the Potency is inactive: > 76.9 µM. For `COc1cccc(CSc2nnc(-c3ccc(F)cc3)o2)c1` the value was inactive: > 76.9 µM; for `N#CCc1c(C#N)c(N)nc(N2CCN(S(=O)(=O)c3ccccc3)CC2)c1C#N`, inactive: > 76.9 µM.

As to `CN(c1ccccc1)S(=O)(=O)c1ccc(C(=O)Nc2nnc(-c3ccc(F)cc3)o2)cc1`, the Potency was inactive: > 76.9 µM. As to `COC(=O)C1=C2SC(C)C(=O)N2C(N)=C(C#N)C1c1ccc(OC)c(OC)c1` (stereo not given), the Potency was inactive: > 76.9 µM. Take `Cc1cccc(OCCCC(=O)Nc2ccc(S(=O)(=O)Nc3onc(C)c3C)cc2)c1C`: the Potency was inactive: > 76.9 µM.

For the compound `COc1ccc(-c2cc(C(=O)O)c(C)o2)cc1OC`, the Potency was inactive: > 76.9 µM.

For the compound `COc1cccc(-c2nnc(Nc3nc4c(F)cccc4s3)o2)c1`, the Potency is inactive: > 76.9 µM.

As for `COc1cccc(-c2nnc(NC(=O)c3ccc(S(=O)(=O)N(CC(C)C)CC(C)C)cc3)o2)c1`, the Potency was inactive: > 76.9 µM. For `CCOc1ccccc1NC(=O)CCn1c(=O)oc2ccccc21`, the Potency was inactive: > 76.9 µM. For the compound `O=C1CC(C(=O)N(c2cccc(F)c2)C(C(=O)NC2CCCC2)c2ccccn2)CS1` (stereo not given), the Potency was inactive: > 76.9 µM. On to `O=C(Nc1ccc(Cl)c(Cl)c1)N1CCC(N2CCCCC2)CC1`, for which the Potency is inactive: > 76.9 µM. For `CC(C)(C)c1cc(C(=O)O)c(CN2CCCCC2)o1` the value was inactive: > 76.9 µM; for `Cn1c(CNC(=O)C(C)(C)C)nc2ccccc21`, inactive: > 76.9 µM.

As to `O=c1c[n+]([O-])c2ccccc2n1OCc1c(F)cccc1F`, the Potency was inactive: > 76.9 µM.

With `O=C(CCc1nc2ccccc2[nH]1)Nc1ccc2c(c1)OCO2`, the Potency is inactive: > 76.9 µM. The result for `Cc1cc(C)c2[nH]c(=O)c(C(c3nnnn3CC3CCCO3)N3CCCC(C)C3)cc2c1` (stereo not given) reads inactive: > 76.9 µM; that for `CC(=O)Nc1cc(C(=O)O)ccc1S(=O)(=O)c1ccc(C)cc1`, inactive: > 76.9 µM.

In the case of `O=C(Nc1ccc2c(c1)OCO2)C1CCCN1C(=O)NCc1ccccc1` (stereo not given), the Potency is inactive: > 76.9 µM. For `O=C(NC1CCS(=O)(=O)C1)c1cccc(S(=O)(=O)N2CCOCC2)c1` (stereo not given), the Potency was inactive: > 76.9 µM. In the case of `COCc1nnc(NC(=O)CSc2ccc(C)cc2)s1`, the Potency was inactive: > 76.9 µM. `CCOC(=O)C1CCCN(C(=O)c2cnn3c(C(F)(F)F)cc(-c4ccccc4)nc23)C1` (stereo not given): the Potency was inactive: > 76.9 µM. As to `CCc1cc2c(=O)n(-c3ccccc3)cnc2s1`, the Potency is inactive: > 76.9 µM.

As to `Cc1nnc(NC(=O)c2ccc3ccccc3c2)o1`, the Potency was inactive: > 76.9 µM. On to `O=C1CC(c2ccc(F)cc2)C2=C(CCCC2=O)N1` (stereo not given), for which the Potency is inactive: > 76.9 µM. As for `C=CCn1c(=O)c2ccccc2n2c(SCC(=O)NCCc3ccccc3)nnc12`, the Potency is inactive: > 76.9 µM.

Consider `COc1cccc(CNC(=O)C2CCCN(S(=O)(=O)c3c(C)n[nH]c3C)C2)c1` (stereo not given), for which the Potency was inactive: > 76.9 µM.

As to `Cc1c(C(=O)N(Cc2cccs2)C2CCS(=O)(=O)C2)oc2ccccc12` (stereo not given), the Potency is inactive: > 76.9 µM.

Turning to `CCOc1ccc2c(c1)N(C(=O)CN1C(=O)CCC1=O)C(C)(C)C=C2C`, the Potency was inactive: > 76.9 µM. As for `CCCSc1nnc(Cc2cc(=O)[nH]c(=O)[nH]2)n1-c1cc(C)ccc1C`, the Potency was inactive: > 76.9 µM. Take `COc1ccc(-c2cc(N)n(CCC#N)n2)c(OC)c1`: the Potency is inactive: > 76.9 µM.

Consider `CCC(C(=O)Nc1nc(C)cs1)c1ccccc1` (stereo not given), for which the Potency was inactive: > 76.9 µM.

Take `Cc1cccc2cc(COC(=O)c3ccccc3)c(=O)[nH]c12`: the Potency is inactive: > 76.9 µM. Regarding `CCCC(=O)N1CCN(c2ccc(NC(=O)c3ccc(Br)o3)cc2)CC1`, the Potency is inactive: > 76.9 µM. For `CCOC(=O)CC1C(=O)NC2CCCCC2N1C(=O)Nc1ccc(Cl)cc1` (stereo not given) the value was inactive: > 76.9 µM; for `CCOC(=O)c1sc2nc(SCC(=O)NCc3ccco3)n(Cc3ccccc3)c(=O)c2c1C`, inactive: > 76.9 µM; for `Cc1cc2c(c(=O)n1C)C(Cc1ccccc1)C(C#N)=C(N)O2` (stereo not given), inactive: > 76.9 µM. With `O=C(COC(=O)C1CCCCC1)Nc1ccc(N2CCCCC2)cc1`, the Potency is inactive: > 76.9 µM. For the compound `CC1Cc2cc(/C(O)=C3/C(=O)C(=O)N(Cc4ccco4)C3c3cccs3)ccc2O1` (stereo not given), the Potency is inactive: > 76.9 µM.

Take `O=C(O)c1ccccc1OCCOCCOc1ccccc1C(=O)O`: the Potency was inactive: > 76.9 µM. As for `CC(C)(C)n1nc2c(c1NC(=O)c1cccc(C(F)(F)F)c1)CS(=O)C2` (stereo not given), the Potency is inactive: > 76.9 µM.
